Among all 200,000 compounds or so, about 4,500 (2.2%) were called active. Inconclusive means that the source gave no clear call. Such entries were picked first, then a sample of the others. Calls come from the whole dose curve; as a rule, active = well fitted inhibition curve with a large enough effect; inconclusive = small, poorly fitted or top-dose-only effect, or effect the other way; inactive = flat fitted curve, though single readings scatter. Potencies of inconclusive entries are doubtful fits and often do not repeat.
Target: Cruzipain (Trypanosoma cruzi) (UniProt P25779)
Assay: qHTS Assay for Promiscuous and Specific Inhibitors of Cruzain (without detergent); note: nearly all actives have a fitted effect of over 40% in size;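 for max response, negative = inhibition: plate controls were enzyme without inhibitor for no effect and buffer without enzyme for full effect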
Conditions: purified cruzain, Z-FR-AMC fluorescence, no detergent
Method in brief: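 Purified cruzain at 1.5 nM, pre-incubated 15 min with compound at room temperature in 100 mM sodium acetate pH 5.5, 5 mM DTT, 0.00005% Triton X-100. Reaction started with 2 uM Z-FR-AMC; AMC fluorescence increase over 60 s gives rate.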
Potency is the fitted concentration of half-maximal effect; tags give direction and shape of the fitted curve.

UniProt P25779, sequence (P25779 whole entry, looked up): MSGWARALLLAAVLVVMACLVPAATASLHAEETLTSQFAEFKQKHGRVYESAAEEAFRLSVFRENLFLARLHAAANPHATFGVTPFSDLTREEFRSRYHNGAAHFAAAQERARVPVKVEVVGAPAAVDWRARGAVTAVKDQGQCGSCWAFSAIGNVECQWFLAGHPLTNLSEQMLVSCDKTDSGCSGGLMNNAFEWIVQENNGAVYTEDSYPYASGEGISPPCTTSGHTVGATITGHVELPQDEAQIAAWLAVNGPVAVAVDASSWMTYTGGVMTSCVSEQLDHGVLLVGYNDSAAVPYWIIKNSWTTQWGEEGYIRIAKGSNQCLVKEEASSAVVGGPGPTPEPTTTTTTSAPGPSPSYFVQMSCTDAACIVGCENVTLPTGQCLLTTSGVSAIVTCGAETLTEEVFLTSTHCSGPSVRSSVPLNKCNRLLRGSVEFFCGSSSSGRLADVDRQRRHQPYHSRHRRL

`O=C(Nc1nn(Cc2ccc(Cl)cc2)cc1Br)c1ccc(COc2ccccc2Cl)o1` was tested. Which Potency did it give?
The Potency was inconclusive: 31.6 µM [inhibitor, single point].

With `COc1ccc(-c2nc(CSCC(=O)N3CCN(c4cc(Cl)ccc4C)CC3)c(C)o2)cc1` as the molecule, how does the Potency read?
Its Potency is inconclusive: 10 µM [activator, partial curve].

For `Cc1ccc(-n2c(SCC(=O)Nc3cccc(S(=O)(=O)NC4=NCCCCC4)c3)nc3ccccc3c2=O)cc1`, which max response, negative = inhibition is on record?
Its max response, negative = inhibition is inactive: -16.7%.

How did the Potency turn out when `COc1ccc(-n2ncc3c(=O)n(CC(=O)Nc4ccc(S(=O)(=O)N5CCOCC5)cc4)cnc32)cc1` was run?
The Potency was inconclusive: 39.8 µM [activator, single point].

`CCN(CC)c1ccc(NC(=O)c2cnn(-c3ccccc3)c2-n2cccc2)c(C)c1` was tested. Which max response, negative = inhibition did it give?
The max response, negative = inhibition was inactive: 9.84%.

`CC(=O)OC(C)(C)/C=C/C(=O)[C@](C)(O)[C@H]1[C@H](O)C[C@@]2(C)[C@@H]3CC=C4[C@H](C[C@H](O)C(=O)C4(C)C)[C@]3(C)C(=O)C[C@]12C` was tested. Which Potency did it give?
The Potency was inconclusive: 39.8 µM [activator, single point].

`Cc1cccc2sc(NC(=O)c3ccc(Cl)s3)nc12` was tested. Which Potency did it give?
Its Potency is inconclusive: 31.6 µM [inhibitor, single point].

With `COc1ccc(-c2ccnc(SCC(=O)c3ccc(OC)c(OC)c3)n2)cc1` as the molecule, how does the Potency read?
The Potency was inconclusive: 39.8 µM [activator, single point].

`O=C(Nc1ccccc1Cc1ccccc1)c1ccccc1NS(=O)(=O)c1ccc(Cl)s1` was tested. Which Potency did it give?
Its Potency is inconclusive: 39.8 µM [inhibitor, single point].

How did the Potency turn out when `CCOc1ccc(/C=C/C(=O)Nc2ccc(OC)cc2[N+](=O)[O-])cc1` was run?
The Potency was inconclusive: 39.8 µM [inhibitor, single point].

How did the Potency turn out when `COC(=O)[C@@H]1CC[C@H](C)[C@@H](c2ccc(C)cc2)N1C(=O)c1ccc(/C=N/O[C@H](C)c2cn([C@@H]3COC[C@H]3O)nn2)cc1` was run?
Its Potency is inconclusive: 5.01 µM [activator, full curve].

For `COc1ccc(NC(=S)N2CCN(C(c3ccccc3)c3ccccc3)CC2)cc1OC`, which Potency is on record?
The Potency was inconclusive: 39.8 µM [activator, single point].

With `Cc1ccc(CNC(=O)C(C)n2nc(C)n3c(cc4sccc43)c2=O)cc1` (stereo unspecified) as the molecule, how does the max response, negative = inhibition read?
The max response, negative = inhibition was inactive: -0.418%.

How did the max response, negative = inhibition turn out when `Cc1ccc(S(=O)(=O)N(CC(=O)Nc2ccc(Cl)cc2Cl)c2ccccc2C)cc1` was run?
Its max response, negative = inhibition is inactive: -29.7%.

`COc1ccc(NC(=O)CCc2c(C)nn(-c3ccc(N4CCCCC4)nn3)c2C)cc1Cl` was tested. Which Potency did it give?
Its Potency is inconclusive: 39.8 µM [activator, single point].

`Cn1c(COc2ccccc2)nnc1SCCSc1nnc(COc2ccccc2)n1C` was tested. Which Potency did it give?
The Potency was inconclusive: 39.8 µM [activator, single point].

Which Potency does the source give for `CCOC(=O)c1cccc(NC(=O)CN(c2ccc(C)cc2)S(=O)(=O)c2c(C)n[nH]c2C)c1` here?
Its Potency is inconclusive: 25.1 µM [activator, single point].

For `CCn1c(C(=O)N2CCC(C(=O)NCCc3ccc(C)cc3)CC2)cc2sccc21`, which Potency is on record?
The Potency was inconclusive: 31.6 µM [activator, single point].

How did the Potency turn out when `COc1ccc(/C=C2/Sc3ccc(C(=O)N4CCc5ccccc5C4)cc3NC2=O)cc1` was run?
Its Potency is inconclusive: 39.8 µM [inhibitor, single point].

`CCn1c(=N)c(C(=O)NCc2ccccc2)cc2c(=O)n3cccc(C)c3nc21` was tested. Which max response, negative = inhibition did it give?
Its max response, negative = inhibition is inactive: 14.2%.

`COc1ccc(-n2nnnc2C2CCN(S(=O)(=O)c3ccc(NC(C)=O)cc3)CC2)cc1` was tested. Which Potency did it give?
The Potency was inconclusive: 39.8 µM [activator, single point].

Which max response, negative = inhibition does the source give for `O=C1NC(CCc2ccccc2)C(=O)N1Cc1ccccc1Cl` (stereo unspecified) here?
The max response, negative = inhibition was inactive: 4.54%.

With `Cc1ccc(OCC(=O)N2CCN(c3ccc([N+](=O)[O-])c(N4CCOCC4)c3)CC2)cc1` as the molecule, how does the Potency read?
Its Potency is inconclusive: 39.8 µM [activator, single point].

Which max response, negative = inhibition does the source give for `CC(C)N(C)C` here?
The max response, negative = inhibition was inactive: -8.76%.

How did the Potency turn out when `Cn1c(=O)[nH]c(=O)c2c1nc(N1CCOCC1)n2CC(O)COc1ccc2ccccc2c1` (stereo unspecified) was run?
Its Potency is inconclusive: 31.6 µM [activator, single point].

Which Potency does the source give for `CC(C)c1ccc(NC(=O)C(=O)c2cn(CC(=O)N3CCCCC3)c3ccccc23)cc1` here?
Its Potency is inconclusive: 39.8 µM [inhibitor, single point].

Which max response, negative = inhibition does the source give for `CCCOc1ccc(C2C(=O)N(C3CCC(C)CC3)CC(=O)N2Cc2cccc(OC)c2)cc1OC` (stereo unspecified) here?
Its max response, negative = inhibition is inactive: 10.8%.

For `Cn1cc(S(=O)(=O)N2CCCCCC2)cc1C(=O)Nc1ccc(Cl)c(C(F)(F)F)c1`, which max response, negative = inhibition is on record?
The max response, negative = inhibition was inactive: -5.69%.

With `CCc1cccc(C)c1NC(=O)Cn1nnc(-c2nc(-c3ccccc3F)no2)c1N` as the molecule, how does the Potency read?
Its Potency is inconclusive: 7.94 µM [inhibitor, single point].

Which Potency does the source give for `COc1ccc(CNc2ccc3c(c2)ncn3-c2ccccc2OC)cc1` here?
The Potency was inconclusive: 39.8 µM [inhibitor, single point].

With `C/C(CC/C(C)=N/O)=N/O` as the molecule, how does the max response, negative = inhibition read?
Its max response, negative = inhibition is inactive: -1.85%.

With `CCC(=O)Nc1ccc(/C(C)=N\NC(=O)c2ccc(C)s2)cc1` as the molecule, how does the max response, negative = inhibition read?
Its max response, negative = inhibition is inactive: -6.04%.

`Cc1cc(C)c2c(n1)sc1c(-c3ccccc3)c(C#N)c(N)nc12` was tested. Which Potency did it give?
The Potency was inconclusive: 25.1 µM [inhibitor, single point].

For `CCOc1ccc(C(=O)NC(=S)Nc2ccccc2N2CCOCC2)cc1Br`, which Potency is on record?
The Potency was active: 15.8 µM.

With `N/C(=N\OS(=O)(=O)c1ccccc1)c1ccccn1` as the molecule, how does the Potency read?
Its Potency is inconclusive: 25.1 µM [inhibitor, single point].

For `COc1ccc(-c2cc3ccc(O)c(CN4CCCC4)c3oc2=O)cc1`, which Potency is on record?
Its Potency is inconclusive: 39.8 µM [inhibitor, single point].

`CCOC(=O)CSc1nc2nc(C)cc(C)n2n1` was tested. Which max response, negative = inhibition did it give?
Its max response, negative = inhibition is inactive: 3.59%.

`Cc1cc2c(cc1C)N(C(=O)CSc1nncn1C)C(C)(C)c1ssc(=S)c1-2` was tested. Which Potency did it give?
Its Potency is inconclusive: 31.6 µM [activator, single point].

With `CCCSc1nc(-c2ccccc2)[nH]c1S(=O)(=O)c1ccc(C)cc1` as the molecule, how does the max response, negative = inhibition read?
The max response, negative = inhibition was inactive: 0.492%.

Which max response, negative = inhibition does the source give for `O=C1CCC[C@@H]2CC(NCc3ccc(Cl)c(Cl)c3)C[C@@H]3CCN1[C@H]23` (stereo partly specified) here?
Its max response, negative = inhibition is inactive: -0.599%.

For `CCOc1ccc2nc(NC(=O)Nc3ccccc3)sc2c1`, which Potency is on record?
The Potency was inconclusive: 39.8 µM [inhibitor, single point].
